Experimental data: PubChem BioAssay AID588342 (National Center for Advancing Translational Sciences (NCATS), 2011)
The campaign covered roughly 360,000 compounds. About 25,000 (6.9%) were called active. The shares of active, inactive and inconclusive entries below differ from those in the screen. The call rests on the fitted dose curve; in most records, active means well fitted inhibition curve with a large enough effect; inconclusive means small, poorly fitted or top-dose-only effect; inactive means flat fitted curve, though single readings scatter. A potency beside an inconclusive call is a rough fit, not a confirmed value.
Further: nearly all actives have a fitted effect of over 55% in size.
Potency means the concentration at half of the fitted maximal effect; tags describe the fitted curve by direction and shape.
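Wherever activity change, negative = inhibition is given: plate controls were vehicle for no effect and reference inhibitor for full effect.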

What follows are molecules tested against Luciferin 4-monooxygenase (Photinus pyralis) (UniProt P08659) (assay: qHTS profiling assay for firefly luciferase inhibitor/activator using purifed enzyme and Km concentrations of substrates (counterscreen for miR-21 project)). Conditions: purified FLuc, luminescence inhibition; activity change, negative = inhibition: at 57.5 µM (top of the series).
Sequence of UniProt P08659 (P08659 whole entry, looked up): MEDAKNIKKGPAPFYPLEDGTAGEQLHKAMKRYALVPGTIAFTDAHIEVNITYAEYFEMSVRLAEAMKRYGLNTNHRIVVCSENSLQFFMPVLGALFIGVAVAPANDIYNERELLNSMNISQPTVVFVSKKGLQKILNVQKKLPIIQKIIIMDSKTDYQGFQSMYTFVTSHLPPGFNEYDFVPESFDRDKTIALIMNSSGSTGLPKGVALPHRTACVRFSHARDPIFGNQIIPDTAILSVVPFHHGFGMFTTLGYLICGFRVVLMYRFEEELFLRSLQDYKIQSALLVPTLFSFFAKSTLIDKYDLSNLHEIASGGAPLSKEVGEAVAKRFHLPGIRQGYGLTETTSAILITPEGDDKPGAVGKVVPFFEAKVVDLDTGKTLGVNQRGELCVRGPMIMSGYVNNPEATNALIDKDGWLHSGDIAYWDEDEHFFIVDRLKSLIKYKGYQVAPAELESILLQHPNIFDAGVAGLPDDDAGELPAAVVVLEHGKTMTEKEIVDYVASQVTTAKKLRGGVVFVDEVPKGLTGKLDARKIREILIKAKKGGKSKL
Outline: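 Biochemical qHTS of compounds, final roughly 60 µM downward over six points, against 10 nM purified firefly luciferase using Km concentrations of substrates (10 uM D-luciferin, 10 uM ATP) in Tris acetate pH 7.5 buffer; luminescence output.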
For `COCc1ccc(C(=O)N2CCCC(Nc3ccc4c(c3)OCCO4)C2)o1` (stereo not drawn), the Potency was inconclusive: 37.9 µM [inhibitor, single point].
With `Cc1ccc(NC(=O)C(=O)NCc2ccc(/C=N/NC(=O)c3c(C)nc4ccccn34)o2)cc1` the Potency was active: 1.69 µM.
In the case of `C=CC[n+]1c(-c2ccc(C)cc2)csc1NNC(=O)Nc1ccccc1`, the Potency is reported as active: 19 µM.
For `CC(C)(O)c1cc2ccc(C#Cc3ccsc3)cc2c(=O)o1`, the Potency was inconclusive: 6.75 µM [inhibitor, single point].
In the case of `CCN/N=C(\Cc1nc2ccccc2[nH]1)c1ccccc1`, the Potency is reported as inconclusive: 23.9 µM [inhibitor, partial curve, poor fit].
With `CC1CCCN(c2ccc(C(=O)NCc3ccco3)cc2[N+](=O)[O-])C1` (stereo not drawn) the Potency was inconclusive: 8.49 µM [inhibitor, partial curve, poor fit].
`CCC(=O)Nc1ccc2c(c1)OCCO2` was tested, and the “activity change, negative = inhibition” value was inactive: -1.29%.
In the case of `COc1ccc(-c2cn3cccnc3n2)cc1NC(=O)c1c(F)cccc1F`, the Potency is reported as inconclusive: 23.9 µM [inhibitor, partial curve, poor fit].
`COc1cccc(CNC(=O)C2CCN(S(=O)(=O)c3ccc4c(ccn4C)c3)CC2)c1` was tested, and the “activity change, negative = inhibition” value was inactive: -8.5%.
In the case of `COc1cccc(/C=C(/C#N)c2ccc(Cl)cc2)c1OCc1cccc(C(=O)O)c1`, the Potency is reported as inconclusive: 23.9 µM [inhibitor, single point].
`COc1ccc(NC(=O)N2CCCC(CCC(=O)N(C)CCc3ccccn3)C2)cc1` (stereo not drawn) was tested, and the Potency was inconclusive: 37.9 µM [inhibitor, partial curve, poor fit].
In the case of `Cc1cc(C(=O)NN=C2CCCCC2)c2ccccc2n1`, the “activity change, negative = inhibition” value is reported as inactive: 3.65%.
In the case of `O=C(Nc1ccccc1C(=O)O)C1=NN=CC1`, the Potency is reported as inconclusive: 23.9 µM [inhibitor, partial curve, poor fit].
For `COc1cc(Cl)c(C)cc1NC(=O)CCn1c(=O)c2cccn2c2cccnc21`, the “activity change, negative = inhibition” value was inactive: -2.79%.
`O=C(c1ccc(F)cc1)C(CN1CCOCC1)c1ccccc1` (stereo not drawn) was tested, and the “activity change, negative = inhibition” value was inactive: 6.95%.
With `COc1ccc(N=Cc2nc(-c3ccco3)oc2O)cc1` the Potency was active: 8.49 µM.
In the case of `COc1ccc(SC[C@H](CC(C)C)N2CCN(CCc3ccccc3)CCC2=O)cc1`, the Potency is reported as active: 19 µM.
For `O=C(c1cc2c(s1)-c1ccccc1OC2)N1CCN(c2ccccn2)CC1`, the Potency was inconclusive: 26.9 µM [inhibitor, single point].
For `O=C(NCc1cccnc1)C(=O)Nc1nc2ccccc2s1`, the Potency was active: 15.1 µM.
In the case of `Cc1ccc(-c2sc(C(=O)Nc3ccc(Br)cc3)cc2CC(=O)O)cc1`, the Potency is reported as inconclusive: 21.3 µM [inhibitor, partial curve].
For `Cc1ccccc1C(=O)NC(=S)Nc1ccccc1C(=O)O`, the “activity change, negative = inhibition” value was inactive: -9.54%.
`O=C(c1ccccc1)c1coc2c1C(=O)c1ccccc1C2=O` was tested, and the Potency was active: 26.9 µM.
With `COC(=O)c1ccccc1NC(=O)c1ccc(-c2ccccc2F)o1` the “activity change, negative = inhibition” value was inactive: 3.37%.
For `COc1ccc(C(=O)COC(=O)CCC(=O)Nc2ccc(C(C)=O)cc2)cc1`, the Potency was inconclusive: 13.5 µM [inhibitor, partial curve, poor fit].
With `Cc1ccc(-n2cc(CN3CCN(C(=O)c4ncn[nH]4)CC3)c(-c3ccc(F)cc3)n2)cc1` the Potency was active: 9.53 µM.
With `CC(C)c1cc(C(=O)NCCc2ccccc2)no1` the Potency was active: 16.9 µM.
In the case of `c1ccc2c(c1)OCCc1c-2[nH]c2ccccc12`, the Potency is reported as inconclusive: 37.9 µM [inhibitor, single point].
`O=C(COC(=O)c1cccs1)Nc1cccc(Cl)c1` was tested, and the Potency was inconclusive: 15.1 µM [inhibitor, partial curve].
For `Cc1ccc(-c2cccc(NC(=O)C3C(C(=O)O)[C@@H]4C=C[C@H]3C4)c2)o1` (stereo partly drawn), the Potency was inconclusive: 37.9 µM [inhibitor, partial curve, poor fit].
With `c1cc(CNc2ccc3c(c2)OCO3)ccn1` the “activity change, negative = inhibition” value was inactive: -13.7%.
`Cc1ccc2nc(-c3ccc(NC(=O)COC(=O)c4ccc([N+](=O)[O-])o4)cc3)sc2c1` was tested, and the Potency was active: 1.35 µM.
For `CC(=O)Nc1ccc(Nc2nc(-c3ccccc3)nc3ccccc23)cc1`, the Potency was inconclusive: 23.9 µM [inhibitor, single point].
`CCC1CCCCN1C(=O)CCS(=O)(=O)c1ccccc1` (stereo not drawn) was tested, and the Potency was inconclusive: 26.9 µM [inhibitor, single point].
`Cc1ccc(C(=O)Nc2ccccc2C(=O)O)cc1S(=O)(=O)NCc1ccccc1` was tested, and the Potency was inconclusive: 23.9 µM [inhibitor, single point].
`CC1Oc2ccccc2N(CC(=O)Nc2ccc3c(c2)OCCO3)C1=O` (stereo not drawn) was tested, and the Potency was inconclusive: 37.9 µM [inhibitor, partial curve, poor fit].
In the case of `COc1ccc(Nc2ncnc3c2cnn3-c2ccc(C)cc2C)cc1`, the Potency is reported as inconclusive: 23.9 µM [inhibitor, single point].
With `c1ccc(NCc2ccncc2)cc1` the “activity change, negative = inhibition” value was inactive: 4.46%.
In the case of `CCCCNC(=O)c1ccc2c(OCC)n(CCCC)nc2c1`, the “activity change, negative = inhibition” value is reported as inactive: -1.83%.
For `Cc1nc2nc(COc3ccccc3)[nH]n2c(=O)c1Cc1ccccc1`, the Potency was inconclusive: 37.9 µM [inhibitor, partial curve, poor fit].
With `COc1ccccc1/C=N/NC(=Nc1ccc(C)cc1)c1nc2ccccc2s1` the Potency was active: 16.9 µM.
In the case of `CCC(=O)Nc1cccc(-c2nnc(SCC(=O)c3ccccc3)n2C)c1`, the Potency is reported as active: 6.01 µM.
In the case of `Cc1occc1C(=O)Nc1cccc(C(=O)O)c1`, the Potency is reported as active: 9.53 µM.
In the case of `CCCCCOCC(O)CCC(=O)NN` (stereo not drawn), the “activity change, negative = inhibition” value is reported as inactive: 1.54%.
For `CCN(CC)c1ccc2c(-c3ccc(S(=O)(=O)O)cc3S(=O)(=O)[O-])c3ccc(=[N+](CC)CC)cc-3oc2c1`, the Potency was inconclusive: 9.53 µM [inhibitor, partial curve].
In the case of `Cc1sc(NC(=O)C2=COCCO2)nc1-c1ccc(F)cc1`, the Potency is reported as inconclusive: 15.1 µM [inhibitor, partial curve].
`COc1ccc2[nH]cc(CCNC(=O)C3CCCCC3)c2c1` was tested, and the “activity change, negative = inhibition” value was inactive: 5.32%.
In the case of `COc1cc2cc(-c3ccc(O)cc3O)nc(C)c2cc1OC`, the Potency is reported as inconclusive: 37.9 µM [inhibitor, partial curve, poor fit].
With `CCN1C(=O)c2cccc3c(S(=O)(=O)Nc4ccc(O)c(C(=O)O)c4)ccc1c23` the Potency was inconclusive: 12 µM [inhibitor, partial curve].
With `Cc1ccc(Oc2c(C)nc(-c3ccccc3)[nH]c2=O)cc1` the “activity change, negative = inhibition” value was inactive: -1.91%.
`O=c1c2ccccc2nc2n1CC/C2=C\c1ccccc1[N+](=O)[O-]` was tested, and the Potency was inconclusive: 10.7 µM [inhibitor, partial curve].
With `COc1ccc(NCc2ccccc2-c2nnc(-c3ccccc3)o2)cc1Cl` the Potency was inconclusive: 23.9 µM [inhibitor, partial curve, poor fit].
In the case of `CCN(CC)c1ccc(-c2nc(-c3ccncc3)no2)cc1[N+](=O)[O-]`, the Potency is reported as inconclusive: 12 µM [inhibitor, partial curve].
For `CN1CCN(c2ncnc3c2cnn3-c2ccc(Cl)cc2)CC1`, the Potency was active: 0.953 µM.
For `COc1ccc(/C=C/c2nc(N)nc(-c3ccccc3O)n2)cc1OC`, the Potency was inconclusive: 10.7 µM [inhibitor, partial curve].
In the case of `COC(=O)c1cc(C#N)c(SCc2ccccc2)nc1C`, the Potency is reported as inconclusive: 21.3 µM [inhibitor, partial curve].
For `O=C(OCC(=O)N1CCc2ccccc21)c1c2c(nc3ccccc13)CCCC2`, the Potency was active: 6.75 µM.
In the case of `O=C(N/N=C1/CC2C=CCC12)c1ccc(Br)o1` (stereo not drawn), the Potency is reported as inconclusive: 10.7 µM [inhibitor, partial curve].
With `COc1ccc(Cc2nnc(-c3ccccc3)o2)cc1` the Potency was inconclusive: 13.5 µM [inhibitor, partial curve, poor fit].
For `CCS(=O)(=O)N1Cc2ccccc2CC1C(=O)Nc1nc2ccccc2[nH]1` (stereo not drawn), the Potency was active: 15.1 µM.
In the case of `Cc1cccc(C)c1NC(=O)CCCSc1nc2ccccc2s1`, the Potency is reported as inconclusive: 30.1 µM [inhibitor, partial curve, poor fit].
In the case of `CCn1c(CNC(=O)c2cccs2)nnc1SCC(=O)Nc1ccc(Cl)cc1`, the Potency is reported as inconclusive: 15.1 µM [inhibitor, partial curve].
`O=c1c(-c2ccc3c(c2)OCCO3)coc2c(CN3CCOCC3)c(O)ccc12` was tested, and the Potency was inconclusive: 23.9 µM [inhibitor, partial curve].
For `CCCn1c(C)cc(C(=O)CSc2nc3ccccc3c(=O)n2Cc2ccco2)c1C`, the Potency was active: 5.36 µM.
For `O=C(O)CSc1nnc(-c2ccc3c(c2)OCO3)o1`, the Potency was inconclusive: 23.9 µM [inhibitor, single point].
In the case of `CCOC(=O)c1sc(Nc2ccc(C)cc2C)nc1C`, the Potency is reported as inconclusive: 23.9 µM [inhibitor, single point].
In the case of `CCN1CCN(C(=S)Nc2ccc(Cl)cc2Cl)CC1`, the Potency is reported as inconclusive: 23.9 µM [inhibitor, partial curve, poor fit].
For `O=C1ON=C(c2ccccc2)/C1=C/c1cccnc1`, the Potency was inconclusive: 16.9 µM [inhibitor, partial curve].
With `CCNC(=O)Nc1nc2ccccc2s1` the Potency was active: 23.9 µM.
With `O=C(CSc1ncnc2ccccc12)N1CCCC1` the Potency was inconclusive: 26.9 µM [inhibitor, single point].
In the case of `COc1ccc(CNC(=O)COC(=O)c2cc(-c3ccco3)nc3ccccc23)cc1`, the Potency is reported as inconclusive: 26.9 µM [inhibitor, single point].
For `O=C(CSc1ccc(Br)c2cccc(Cl)c12)Nc1ccc(S(=O)(=O)Nc2nccs2)cc1`, the Potency was inconclusive: 37.9 µM [inhibitor, partial curve, poor fit].
`COc1ccccc1OCC(=O)NNC(=O)c1cccs1` was tested, and the Potency was inconclusive: 21.3 µM [inhibitor, single point].
With `CCS(=O)(=O)c1ccccc1C(=O)N(Cc1cccnc1)c1nc2cc(C)c(C)cc2s1` the Potency was active: 21.3 µM.
